# Changes are numbered by the printed parent chain; changes in the protein carry UniProt numbers. The list shows a part of the results.
# T1: RBFOX1 RRM (Homo sapiens, UniProt Q9NWB1 109-208)
# T1 sequence: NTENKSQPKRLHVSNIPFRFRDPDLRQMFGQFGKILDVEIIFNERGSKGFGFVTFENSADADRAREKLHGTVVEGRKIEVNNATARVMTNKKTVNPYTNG
# B1: AAUCAGG (DNA:RNA)
# RNA: GGGAGACCGGAAUUCAGAUUGUCCAAUCAGGUUAAAUCCCGUCGUAGCCACCA
# DNA 1: CAATCTGAATTCCGGTCTCCC
# DNA 2: TGGTGGCTACGACGGGATT
# B2: GCGCACC (DNA:RNA)
# RNA: B1 RNA with A25G, A26C, U27G, G30C, G31C
# DNA 1: CAATCTGAATTCCGGTCTCCC
# DNA 2: TGGTGGCTACGACGGGATT
# B3: UUCGUGA (DNA:RNA)
# RNA: B1 RNA with A25U, A26U, U27C, C28G, A29U, G31A
# DNA 1: CAATCTGAATTCCGGTCTCCC
# DNA 2: TGGTGGCTACGACGGGATT
# B4: ACAAGGA (DNA:RNA)
# RNA: B1 RNA with A26C, U27A, C28A, A29G, G31A
# DNA 1: CAATCTGAATTCCGGTCTCCC
# DNA 2: TGGTGGCTACGACGGGATT
# B5: CGACCCC (DNA:RNA)
# RNA: B1 RNA with A25C, A26G, U27A, A29C, G30C, G31C
# DNA 1: CAATCTGAATTCCGGTCTCCC
# DNA 2: TGGTGGCTACGACGGGATT
# B6: ACCGCAA (DNA:RNA)
# RNA: B1 RNA with A26C, U27C, C28G, A29C, G30A, G31A
# DNA 1: CAATCTGAATTCCGGTCTCCC
# DNA 2: TGGTGGCTACGACGGGATT
# B7: CUCUAGG (DNA:RNA)
# RNA: B1 RNA with A25C, A26U, U27C, C28U
# DNA 1: CAATCTGAATTCCGGTCTCCC
# DNA 2: TGGTGGCTACGACGGGATT
# B8: CCGCUUC (DNA:RNA)
# RNA: B1 RNA with A25C, A26C, U27G, A29U, G30U, G31C
# DNA 1: CAATCTGAATTCCGGTCTCCC
# DNA 2: TGGTGGCTACGACGGGATT
# B9: UAGACUG (DNA:RNA)
# RNA: B1 RNA with A25U, U27G, C28A, A29C, G30U
# DNA 1: CAATCTGAATTCCGGTCTCCC
# DNA 2: TGGTGGCTACGACGGGATT
# B10: UGAAGCU (DNA:RNA)
# RNA: GGGAGACCGGAAUUCAGAUUGUCCUGAAGCUUUAAAUCCCGUCGUAGCCACCA
# DNA 1: CAATCTGAATTCCGGTCTCCC
# DNA 2: TGGTGGCTACGACGGGATT
# B11: GCUAGUC (DNA:RNA)
# RNA: B10 RNA with U25G, G26C, A27U, C30U, U31C
# DNA 1: CAATCTGAATTCCGGTCTCCC
# DNA 2: TGGTGGCTACGACGGGATT
# B12: ACGCAAU (DNA:RNA)
# RNA: B1 RNA with A26C, U27G, G30A, G31U
# DNA 1: CAATCTGAATTCCGGTCTCCC
# DNA 2: TGGTGGCTACGACGGGATT
# B13: CAUCGCG (DNA:RNA)
# RNA: B1 RNA with A25C, A29G, G30C
# DNA 1: CAATCTGAATTCCGGTCTCCC
# DNA 2: TGGTGGCTACGACGGGATT
# B14: UCGCGGG (DNA:RNA)
# RNA: B1 RNA with A25U, A26C, U27G, A29G
# DNA 1: CAATCTGAATTCCGGTCTCCC
# DNA 2: TGGTGGCTACGACGGGATT
# B15: GGAACCA (DNA:RNA)
# RNA: B10 RNA with U25G, G29C, U31A
# DNA 1: CAATCTGAATTCCGGTCTCCC
# DNA 2: TGGTGGCTACGACGGGATT
# B16: GUUUACC (DNA:RNA)
# RNA: B1 RNA with A25G, A26U, C28U, G30C, G31C
# DNA 1: CAATCTGAATTCCGGTCTCCC
# DNA 2: TGGTGGCTACGACGGGATT
# B17: CCAUCCA (DNA:RNA)
# RNA: B10 RNA with U25C, G26C, A28U, G29C, U31A
# DNA 1: CAATCTGAATTCCGGTCTCCC
# DNA 2: TGGTGGCTACGACGGGATT
# B18: UAUCGGA (DNA:RNA)
# RNA: B1 RNA with A25U, A29G, G31A
# DNA 1: CAATCTGAATTCCGGTCTCCC
# DNA 2: TGGTGGCTACGACGGGATT
# B19: GUGACAU (DNA:RNA)
# RNA: B10 RNA with U25G, G26U, A27G, G29C, C30A
# DNA 1: CAATCTGAATTCCGGTCTCCC
# DNA 2: TGGTGGCTACGACGGGATT
# B20: GCAGCCA (DNA:RNA)
# RNA: B10 RNA with U25G, G26C, A28G, G29C, U31A
# DNA 1: CAATCTGAATTCCGGTCTCCC
# DNA 2: TGGTGGCTACGACGGGATT
# B21: AAGACUC (DNA:RNA)
# RNA: B1 RNA with U27G, C28A, A29C, G30U, G31C
# DNA 1: CAATCTGAATTCCGGTCTCCC
# DNA 2: TGGTGGCTACGACGGGATT
# B22: ACUGGCC (DNA:RNA)
# RNA: B1 RNA with A26C, C28G, A29G, G30C, G31C
# DNA 1: CAATCTGAATTCCGGTCTCCC
# DNA 2: TGGTGGCTACGACGGGATT
# B23: GGUUUAU (DNA:RNA)
# RNA: B10 RNA with U25G, A27U, A28U, G29U, C30A
# DNA 1: CAATCTGAATTCCGGTCTCCC
# DNA 2: TGGTGGCTACGACGGGATT
# B24: ACAGAGA (DNA:RNA)
# RNA: B1 RNA with A26C, U27A, C28G, G31A
# DNA 1: CAATCTGAATTCCGGTCTCCC
# DNA 2: TGGTGGCTACGACGGGATT
# B25: AAACAAC (DNA:RNA)
# RNA: B1 RNA with U27A, G30A, G31C
# DNA 1: CAATCTGAATTCCGGTCTCCC
# DNA 2: TGGTGGCTACGACGGGATT
# B26: GCUGUUU (DNA:RNA)
# RNA: B1 RNA with A25G, A26C, C28G, A29U, G30U, G31U
# DNA 1: CAATCTGAATTCCGGTCTCCC
# DNA 2: TGGTGGCTACGACGGGATT
# B27: CGAAGGU (DNA:RNA)
# RNA: B10 RNA with U25C, C30G
# DNA 1: CAATCTGAATTCCGGTCTCCC
# DNA 2: TGGTGGCTACGACGGGATT
# B28: GGUGGUU (DNA:RNA)
# RNA: B10 RNA with U25G, A27U, A28G, C30U
# DNA 1: CAATCTGAATTCCGGTCTCCC
# DNA 2: TGGTGGCTACGACGGGATT
# B29: UUCAAUC (DNA:RNA)
# RNA: B10 RNA with G26U, A27C, G29A, C30U, U31C
# DNA 1: CAATCTGAATTCCGGTCTCCC
# DNA 2: TGGTGGCTACGACGGGATT
# B30: AAACAAA (DNA:RNA)
# RNA: B1 RNA with U27A, G30A, G31A
# DNA 1: CAATCTGAATTCCGGTCTCCC
# DNA 2: TGGTGGCTACGACGGGATT
# B31: CAUAGUU (DNA:RNA)
# RNA: B10 RNA with U25C, G26A, A27U, C30U
# DNA 1: CAATCTGAATTCCGGTCTCCC
# DNA 2: TGGTGGCTACGACGGGATT
# Biological target: T1, RBFOX1 RRM
# Assay: EMSA; HiTS-Eq, 1 nM pool, 10 min; buffer printed only for the single-RNA assays: 10 mM Tris pH 7.5, 150 mM NaCl, 3.4 mM EDTA, 0.001% NP-40, 30 C
# Conditions: tags: His6 N-terminal (pET28a); label: 5' 32P
# Outline: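 Purified RbFox RRM, wild type or mutant, was incubated for 10 min in 50 µL with 1 nM of a 5′-radiolabelled RNA pool carrying 7 randomized nucleotides, whose flanks were annealed to DNA oligonucleotides, over a series of increasing protein concentrations. Unbound RNA was resolved on 8% native PAGE, cut out, reverse-transcribed, barcoded by PCR and sequenced on an Illumina HiSeq 2500. Relative association constants were derived from changes in read counts for each RNA species versus the control reaction and normalised to the cognate motif.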
row,Binder,binding signal
1,B1,0.00703 KA relative to UGCAUGU
2,B2,0.0133 KA relative to UGCAUGU
3,B3,0.0173 KA relative to UGCAUGU
4,B4,0.00371 KA relative to UGCAUGU
5,B5,0.00568 KA relative to UGCAUGU
6,B6,0.00255 KA relative to UGCAUGU
7,B7,0.0121 KA relative to UGCAUGU
8,B8,0.0138 KA relative to UGCAUGU
9,B9,0.019 KA relative to UGCAUGU
10,B10,0.0134 KA relative to UGCAUGU
11,B11,0.0273 KA relative to UGCAUGU
12,B12,0.00218 KA relative to UGCAUGU
13,B13,0.00706 KA relative to UGCAUGU
14,B14,0.0117 KA relative to UGCAUGU
15,B15,0.00565 KA relative to UGCAUGU
16,B16,0.0122 KA relative to UGCAUGU

row,Binder,binding signal
1,B17,0.00471 KA relative to UGCAUGU
2,B18,0.000742 KA relative to UGCAUGU
3,B19,0.00809 KA relative to UGCAUGU
4,B20,0.00765 KA relative to UGCAUGU
5,B21,0.00554 KA relative to UGCAUGU
6,B22,0.0149 KA relative to UGCAUGU
7,B23,0.00895 KA relative to UGCAUGU
8,B24,0.00332 KA relative to UGCAUGU
9,B25,0.00125 KA relative to UGCAUGU
10,B26,0.0238 KA relative to UGCAUGU
11,B27,0.0154 KA relative to UGCAUGU
12,B28,0.0209 KA relative to UGCAUGU
13,B29,0.00156 KA relative to UGCAUGU
14,B30,0.00172 KA relative to UGCAUGU
15,B31,0.00395 KA relative to UGCAUGU

# — publication PMC9911399, “Two distinct binding modes provide the RNA-binding protein RbFox with extraordinary sequence specificity”
